From ChEMBL document CHEMBL1201862, “PubChem BioAssay data set” (2004)
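Where inhibition never reached the appropriate level, the endpoint shown equals the highest concentration tested. Otherwise, values were interpolated linearly from a five-concentration, 48-hour dose response in 96-well plates. Abbreviation: GI50, concentration required for 50% inhibition of growth.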 The source made the active and inactive calls. Rule as the data show it: active = GI50 up to about 1.1 µM and inactive = higher. Bridge positions count the residues as written; N and C are the ends. Square brackets hold non-standard residues; d marks the D form. Peptide text beside a SMILES is read from it. * marks the point of attachment. Cbz = O=C(OCc1ccccc1)*; Dab = NCC[CH](N)C(=O)O; Bn = c1ccc(C*)cc1

What follows are compounds tested on NCI-H322M (assay: inhibition of tumour cell growth, NCI panel, 48 h).

SMILES	GI50
N#Cc1nc(CCCN2C(=O)c3ccccc3C2=O)oc1N	inactive: > 100 µM
N#Cc1ccc(NC(=O)C(CC(=O)OCc2ccccc2)NC(=O)OCc2ccccc2)cc1 (stereo not given)	inactive: > 10 µM
CSc1nc(NC2OC(COC(C)=O)C(OC(C)=O)C(OC(C)=O)C2OC(C)=O)c(/N=C(\C)C(C)=O)c(=O)n1C (stereo not given)	inactive: > 100 µM
CC1=CCC[C@@H]2[C@@](C)(Cc3cc(O)ccc3O)[C@H](C)CC[C@@]12C	inactive: 7.16 µM
Clc1ccc(NCc2nnc(CCCCCCCCc3nnc(CNc4ccc(Cl)cc4)o3)o2)cc1	inactive: > 100 µM
CSCSSC	inactive: > 100 µM
CSc1ccc(/C=C2\N=C(c3ccccc3)N(/N=C/c3cc4cc(C)ccc4nc3Cl)C2=O)cc1	inactive: 40.6 µM
CC(=O)OC1C2CCC1C1C2C2(Cl)C(Cl)=C(Cl)C1(Cl)C2(Cl)Cl (stereo not given)	inactive: 20.8 µM
N#CCCN(CCN(CCC#N)C(=O)Nc1ccccc1)C(=O)Nc1ccccc1	inactive: > 100 µM
CN1CCN(CCCCN2c3ccccc3Sc3ccc(C(=O)c4ccccc4)cc32)CC1	inactive: 1.91 µM
O=C(Nc1cc(Cl)ccc1Cl)c1cc2ccccc2oc1=O	inactive: > 100 µM
COC(=O)C(=O)CC(=O)c1cccc(OC)c1	inactive: > 100 µM
O=C1OC(C2OC(=O)c3cc(O)c(O)c(O)c3-c3c(O)c(O)c4oc(=O)c5c(c(O)c(O)c6oc(=O)c3c4c65)-c3c(cc(O)c(O)c3O)C(=O)OCC2O)C2OC(=O)c3c(c(O)c(O)c(O)c3[C@H]2O)-c2c1cc(O)c(O)c2O (stereo not given in full)	inactive: 16.5 µM
O=C1C(Cl)=C(N2CCN(CCOCCO)CC2)C(=O)c2c(O)ccc(O)c21	inactive: 1.78 µM
FC(F)(F)C1=NC(=NNc2nnc(-c3ccccc3)c(-c3ccccc3)n2)N=C(C(F)(F)F)C1	inactive: 15.8 µM
CC(C)(C)NN=C1C(C)(C)C(=NNC(C)(C)C)C1(C)C	inactive: > 100 µM
CCOC(=O)c1cnc(-n2[nH]c(C)c(CCO)c2=O)[nH]c1=O	inactive: > 100 µM
O=C(O)CSCC(=O)Nc1ccc2cccc3c2c1CC3	inactive: > 100 µM
CN(CCSCCN(C)C(=O)OC(C)(C)C)C(=O)OC(C)(C)C	inactive: > 100 µM
COc1cccc2c1C(=O)c1c(O)c3c(c(O)c1C2=O)C[C@@](O)(C(C)=O)CC3OC1CC(OC2CC(N)C(O)C(C)O2)C(O)C(C)O1 (stereo not given in full)	inactive: 77.1 µM
O=C(O)CC(Nc1ccccc1)C(=O)O (stereo not given)	inactive: > 100 µM
Cc1cn(C2CC(O)C(COP(=O)(O)OC3CC(n4c[n+]([BH2-]C#N)c5c(=O)[nH]c(N)nc54)OC3CO)O2)c(=O)[nH]c1=O (stereo not given)	inactive: > 100 µM

SMILES	GI50
Clc1ccc(COc2ccccc2/C=N/c2c(-c3ccco3)nc3ccccn23)c(Cl)c1	inactive: > 100 µM
CC(C)(C)[Si](C)(C)OCC1CCC(n2cnc3c(NC(=O)c4ccccc4)ncnc32)O1 (stereo not given)	inactive: 20.1 µM
CN1CN(C(=O)N2CN(C)C(=O)N(C)C2)CN(C)C1=O	inactive: > 100 µM
CC(C)=CCCC1(C)C2COC(=O)C21 (stereo not given)	inactive: > 100 µM
COc1c(C)c2c(c3c1c(=O)c1ccccc1n3C)C=CC(C)(C)O2	inactive: 25.2 µM
Oc1nc2ccccc2c2oc3ccccc3c12	inactive: > 100 µM
COc1cc2c(cc1Cc1c(F)cccc1Cl)nc(-c1c(F)cccc1Cl)n2Cc1c(F)cccc1Cl	inactive: 28.3 µM
CC1(C)CC(=O)c2c([nH]c(=S)c(C#N)c2-c2ccc(Br)cc2)C1	inactive: 75.5 µM
COc1ccc(N[S+]([O-])c2ccc(-c3ccccc3)cc2)cc1 (stereo not given)	inactive: > 100 µM
Cn1c(=O)c2nc(-c3ccc(Cl)cc3)oc2n(C)c1=O	inactive: > 100 µM
Nc1[nH]c(Nc2ccc(Cl)c(Cl)c2)nc2ncnc1-2	inactive: 14.9 µM
Cc1c(C2Cc3ccccc3N2)c2ccccc2n1C (stereo not given)	inactive: > 100 µM
O=C(O)Cc1cccc2c1Oc1ccccc1S2	inactive: > 100 µM
O=C1C(NS(=O)(=O)c2ccccc2)=C(n2cnc3ccccc32)C(=O)c2ccccc21	inactive: > 100 µM
CCOC(=O)NC(=O)c1cn(CCCCCCOC(=O)NCCCCCCNC(=O)OCCCCCCn2cc(C(=O)NC(=O)OCC)c(=O)[nH]c2=O)c(=O)[nH]c1=O	inactive: > 100 µM
C/C(=N\NC(=N)N)C(CN(C)C)C(c1ccccc1)c1c(O)c2ccccc2oc1=O (stereo not given)	inactive: > 100 µM
C=C1CC(c2ccc(O)c(OC)c2)Oc2c(OC)cccc21 (stereo not given)	inactive: 61.7 µM
CC1(CO)OC(n2cc(C(=O)NC(=O)OCc3ccccc3)c(=O)[nH]c2=O)CC1O (stereo not given)	inactive: > 100 µM
N#CCC(=O)N1CCCOCCC1	inactive: > 100 µM
Nc1nc(Nc2ccc(Cl)cc2)sc1C(=O)c1cccs1	inactive: 16 µM
Cc1ccc(S(=O)(=O)c2c(N)c3nc4ccccc4n3c3nc4ccccc4nc23)cc1	inactive: > 100 µM
Cc1ccc(N(C)S(=O)(=O)c2ccccc2)cc1	inactive: > 100 µM

SMILES	GI50
CNC(=O)NCCCC(NC(C)=O)C(=O)NCc1ccccc1 (stereo not given)	inactive: > 100 µM
N#Cc1ccc(Nc2nc3[nH]cnc3c(=O)[nH]2)cc1	inactive: > 100 µM
O=C(O[C@@H](/C=C/c1ccccc1)P1(=O)N(Cc2ccccc2)[C@@H]2CCCC[C@H]2N1Cc1ccccc1)c1ccccc1	inactive: 5.12 µM
Cc1cccc2oc3c(c(=O)c12)CC(O)C(C)(C)O3 (stereo not given)	inactive: > 100 µM
CN(C)CCn1c2c(c3ccccc31)CCc1ccccc1-2	inactive: 20.4 µM
CC(=O)Oc1ccc2c(c1OC(C)=O)CCC1C2=CC[C@]2(C)C(=O)CCC12 (stereo not given in full)	inactive: 21.7 µM
COc1ccc(C(=O)C(C(=O)CCC(=O)Nc2ccc(C)c(C)c2)c2ccc(OC)cc2)cc1 (stereo not given)	inactive: > 100 µM
CCCCCCCCCC(=O)NC(CCC(=O)N(CCNC(=O)c1nc(-c2ccccc2)oc1-c1ccccc1)Cc1ccccc1)C(=O)O (stereo not given)	inactive: 19.5 µM
O=c1c2cc3c(cc2c2cccc4c2n1CCC4)OCO3	inactive: 28.4 µM
O[C@@H]1C=C[C@]23CCN(Cc4cc5c(cc42)OCO5)[C@@H]3C1	inactive: 60.8 µM
COc1cc(C2S/C(=C/c3ccccc3)C(=O)N2c2cccc(NC(C)=O)c2)cc(OC)c1OC (stereo not given)	inactive: 23.8 µM
CC(C)N(C(=O)C12C3C4C1C1C2C3C41I)C(C)C (stereo not given)	inactive: > 100 µM
Nc1c(/C=C/c2cc3cc(C4=NCCN4)ccc3o2)[nH]c2cc(C3=NCCN3)ccc12	inactive: 22.6 µM
CN(C)[C@@H]1C(O)=C(C(=O)NCNCCCC(=O)O)C(=O)[C@@]2(O)C(O)=C3C(=O)c4c(O)cccc4[C@@](C)(O)[C@H]3C[C@@H]12	inactive: > 100 µM
COc1ccc2c(c1)c(=O)c1c(NCCNCCO)ccc3c(=O)n(CCN(C)C)c(=O)n2c31	active: 0.0164 µM
COc1ccc(OC2OC(COC(c3ccccc3)(c3ccc(OC)cc3)c3ccc(OC)cc3)C(O)C(O)C2O)cc1 (stereo not given)	inactive: 6.87 µM
CN(C)CCCNC(=O)c1c(O)c2ccccc2n(C)c1=O	inactive: 53 µM
Cc1ccc(-n2cc(-c3ccc(Cl)cc3)c3c(NN)ncnc32)cc1	inactive: 2.08 µM
FC(F)(F)c1cc(Cl)cnc1N/N=C(/c1ccccc1)c1ccccn1	inactive: 2.95 µM
CC(C)CC1NC(=O)C(Cc2ccccc2)NC(=O)C(Cc2ccccc2)NC(=O)C(NC(=O)C(Cc2ccc(OCc3ccccc3)cc2)NC(=O)OCc2ccccc2)CCNC1=O (stereo not given) (Cbz-Y(Bn)[Dab]FFL; lactam 2-C; configuration not given here)	inactive: > 100 µM
O=C1NC(N2CCCC(CO)C2)=N/C1=C\c1cccs1 (stereo not given)	inactive: > 100 µM
Cc1c(CC/C(=N\Nc2ccc([N+](=O)[O-])cc2[N+](=O)[O-])c2ccccc2)c2ccccc2n1C	inactive: > 100 µM

SMILES	GI50
COc1ccc(/N=c2\ssc(C(=S)Nc3ccc(OC)cc3)c2S)cc1	inactive: > 100 µM
COC1/C=C\OC2(C)Oc3c(C)c(O)c4c(O)c(c(CN(C)C)c(O)c4c3C2=O)NC(=O)/C(C)=C\C=C/C(C)C(O)C(C)C(O)C(C)C(OC(C)=O)C1C (stereo not given)	inactive: 24.8 µM
CC1(C)CCN2C(=O)C34CCCC3CC21S4 (stereo not given)	inactive: > 100 µM
Cc1ccc2c3c4c(ccc13)C(C)(C)OC4=C(C(C)C)C2=O	inactive: > 100 µM
CN[C@@H](C)[C@H](N)c1ccccc1	inactive: > 100 µM
Cc1[nH]c(=O)nc(N/N=C/c2ccc(O)cc2)c1C(=O)Nc1ccc(Cl)cc1	inactive: > 100 µM
COc1cc2c(cc1OC)[Se]c1cc(OC)c(OC)cc1[Se]2	inactive: > 10 µM
C=C[C@H]1CN2CCc3c([nH]c4c([C@@H]5CCCN5C)c(O)ccc34)[C@@H]2C[C@@H]1C[C@H]1c2[nH]c3ccccc3c2CCN1C	inactive: 1.55 µM
O=C(NC1=C(Cl)C(=O)c2ccccc2C1=O)C(=O)C(C(=O)c1ccc2ccccc2c1)C1OC(=O)c2ccccc21 (stereo not given)	inactive: 3.07 µM
c1ccc(N/N=N/c2ccc(-c3nc4ccccc4o3)cc2)nc1	inactive: > 100 µM
CSc1ccc(NC(=O)C2c3[nH]c4ccccc4c3C3CCC(C(C)(C)C)CC3C2C(=O)O)cc1 (stereo not given)	inactive: 25 µM
Cc1cc([N+](=O)[O-])c(C)c2c1[nH]c1ccc(Cl)cc12	inactive: > 100 µM
CC[C@H]1C=CCC[C@@]2(C[C@@H]3CC[C@H]4[C@@H](C(=O)OCCCCCCCCCCCCCCCC(=O)N(CCCN)C[C@@H](O)CCN)[C@@]5(CCC[C@@H](C)O5)NC(=[N+]34)N2)O1	inactive: 1.72 µM
COc1ccc(CC2COc3cc(O)cc(O)c3C2=O)cc1O (stereo not given)	inactive: 30.5 µM
CSc1nc2ccccc2c(=O)n1-c1cccc(C)c1	inactive: > 100 µM
C[C@H](CCc1nc(C#N)c(N)o1)[C@H]1CC[C@H]2[C@@H]3[C@@H](O)CC4C[C@@H](O)CC[C@]4(C)[C@H]3C[C@@H](O)[C@]12C (stereo not given in full)	inactive: 33.6 µM
CCOC(=O)[C@@H]1ON2O[C@@H](OC3CCCC3(c3ccccc3)c3ccccc3)C[C@H]3OC(=O)[C@@H]1C32 (stereo not given in full)	inactive: 45.5 µM
CN1C(=O)C(O)C[C@@H]1c1ccccc1 (stereo not given in full)	inactive: > 100 µM
Cc1cc2c(cc1C)[n+]([O-])c(C(F)(F)F)c(C(=O)c1ccccc1)[n+]2[O-]	inactive: 4.7 µM
